The text below walks through data of the RNAGym collection of RNA variant scans (doi:10.7554/elife.90254).

The source gives no read counts; variants with many changes may rest on few reads.

B1: LINE1-full (parent)
chain: UACGUAGGUGGUUUUCCCCUGAUAGUGCUAAGGGGGCCUGGAAGUUUGGACUGGGCAGAGCUCAACACAGCGUGGCAAAGUGGCUGUGGCUAGACUGCCUCUCUGGAUUCCUCGUCACUCAGCAGGGCAUCUCUGAGAGAAAUGCC

In this data set the parent is B1. Nature of the data set: self-cleavage, relative activity (ratio to wild type); higher = more cleavage; in vitro, sequencing; the parent is a self-cleaving ribozyme.
For U26C U45A U108C, the self-cleavage worked out at 1.67.
The value for U26C G49C G55C A141G was 0; that for U29C A30G A59U A77G was 1.84.
Regarding U29A U96C C128G C146A, the self-cleavage turned out to be 0.16.
The value for U26C U46C U87A U130C was 0.23; that for U26C U39A C111U U115C was 1.6; that for U26C G40A A79G U87A U132C was 0.07.
Regarding U26C A50G U62C U87A A117U A124G, the self-cleavage stood at 0.
The value for U29C A30U U134C was 2.45; that for G27A U39A U45C U115C was 1.19; that for U26C U100C A138G was 2.93.
Then G27A A67G C84U U87A U109C A141G, with 0.03; and U26A U102G A142G, with 0.21.
Turning to U26C U29C U47A A94G U119A, the self-cleavage worked out at 0.
Then G27A U29C A78G U134C, with 0.32; and U26C U29C C99U, with 0.1; and U26A A67U A142G, with 0.06.
Then C28A G32A A77G U112A, with 1.18.
Then U26C A69G U73A G74A, with 0.74; and U26C A30U U85C A129G, with 0.63; and U26A U52C C76U A124G, with 0.63.
Turning to U26A U47C A121U, the self-cleavage is 1.5.
The value for U26C U47C A117C was 0.71.
On to U26C U112A A142G, for which the self-cleavage worked out at 1.6.
As for G27A U62A A77U, the self-cleavage is 0.02.
Then U26C C99U U102C, with 0.83; and U26A A57G A79G, with 0.
On to U26C A42U A141G, for which the self-cleavage stood at 0.86.
The value for G27A C68A U85C was 0.05; that for U29C C113A A124G was 1.94.
As to U29C A30U A138G, the self-cleavage was found to be 0.55.
In the case of U26C A69G G75A A77U, the self-cleavage is 0.6.
Then U26C U39A U46C A64G G105U U132C, with 0.38; and U26C G41A A57U, with 0.11.
The value for G27C U109C C110U was 1.43; that for C28A U39C U47A U100C was 1.89; that for U29A A77G A129G A141G was 1.84.
Then U29C A50G U130C, with 1.41.
As to U26C A30U A124G, the self-cleavage came out at 1.21.
U26C U45C A107U: the self-cleavage turned out to be 1.91.
On to U26C A69C G93A C103A A136G, for which the self-cleavage amounted to 0.02.
The value for A24U U81C U104A A141U A142U was 1.25.
Then U26C A64U A94G, with 0; and G25A G32A A78G U109C, with 0.67.
U26C C61G A117G: the self-cleavage is 0.
The value for G25A C63U A92G A140C was 0; that for U29C A140G A141G was 1.4.
The value for U29A U62C C71A was 0.02; that for U26C U52C A64U G72A U119C C123U was 0.4.
For C28G G35U U45A A124G, the self-cleavage stood at 0.62.
Then U26A U87A U130C A141G, with 0.11; and U26A U112A A141G, with 1.01; and C28U U47A U112C, with 0.93.
For the variant U29C C113U A141G, the self-cleavage amounted to 1.43.
For the variant G27A A43G U45A U119A, the self-cleavage was 2.55.
In the case of U26C A67G A141G, the self-cleavage is 0.54.
Then U26G U52C G88A A140G, with 0.14; and U26C G83U U115A U130C, with 0.22.
The value for U29A G54A U87A was 0.09; that for G25A U119C A138C was 1.09; that for G25A A92C U104G was 0.
The value for U26C A43U U62C G105A was 0.1; that for U29A A94U U115C A141G C145U was 0.59; that for U26C U91A U115C was 1.47.
For U26C G54A U115C, the self-cleavage was found to be 0.61.
The value for C28U U39A U81C U130C was 0.84; that for C28U C90U A136G was 0.04.
The value for U26C U29C U108C was 1.08.
Then U26A A67U A140G, with 0.08; and U26A A43G A94U, with 0.11; and G25U A31G G53A U85A U102A, with 0.07.
With U29C A77G C131U, the self-cleavage was 1.84.
Take G25A A43U A117G C128A: the self-cleavage was 0.42.
Then G27U U47A A77G U112A, with 2.63; and U26A U112C A121U, with 1.18; and A24U U112C A124C, with 1.2.
Turning to U26A U45C A57G, the self-cleavage came to 1.31.
The value for U26A U73C C145U was 2.34; that for U26C G36C A92G A136G was 0.09.
Then C28G G32A C113U U132C, with 0.27.
The value for U26C A57U A136G was 0.18; that for U29C G48A U100C was 1.13.
With U26C U45C U81A A136G, the self-cleavage is 2.3.
The value for U26C U45G G72U U132C was 2.25; that for U26A C38A U47C was 0.78.
Then U26C C51U U62A U100C U109C A140G, with 0.07.
The value for U26A A69U A141G was 0.03; that for U29C G53A A64G A124G was 0.4.
As to U26C U39A U47C A69G A78G, the self-cleavage came to 1.53.
The value for U26A G58U U73A was 0.07; that for U26C A78G U87A U108C was 0.17; that for U26C A78G U91C was 0.57.
Then U26C G33U G40A, with 1.37; and U26C G49A A57G U62C U85A A121G, with 0.11.
The value for G27A A124G G135A was 1.3; that for U26C A59U C66U U100C was 0.14; that for G27A U47G U62C U104A was 0.04.
For the variant U26G C113A A138G, the self-cleavage came to 1.28.
With U26C U39A U100C, the self-cleavage is 2.45.
The value for U29A U73C G127A A136G was 1.62.
Consider U26A A57G G74A A124U, for which the self-cleavage was found to be 0.38.
Then U26C U52A U102C A138G A141G, with 1.1.
The value for U26A U62A U96C was 0; that for U29C A69G G127U was 0.63.
For U26A A50G A107U, the self-cleavage is 0.92.
Then U26A U62C A64G U102A U132C, with 0; and U29A A57U A79G A129U, with 0.12.
Then U29A A50G U87A A107G, with 0.
Consider U29C A121G A140G, for which the self-cleavage is 0.
As to C28U U81C U102A, the self-cleavage amounted to 1.53.
The value for U26C U96C C120U was 0.09; that for U26C A142G U143G was 0.63.
The value for U26C A142G U143C was 1.74; that for U29A G53A U85C U132C was 0.12.
As to C28U U47A U62C U87C C90U U132A, the self-cleavage came out at 0.02.
The value for U26C U39C G53A was 1.35; that for U29C A43G G88A A138U A142G was 0.08; that for U29C A42G U62C A78G G82A U96C U104A A136G A140G was 0.
The value for U26C U46G G105A U108C A124G C131U was 0.96; that for U26A A57U U100C was 0.21; that for U26C U52C U62A A92G was 0.
Then U26A U46C U81A, with 1.89.
Take U29C A67G U115C G122A: the self-cleavage is 0.
Turning to U26C U73G C133A, the self-cleavage came out at 1.81.
The value for U26A U45C A67G A140U was 0.68.
In the case of U29C A79G U134A, the self-cleavage came out at 0.38.
Then G25A U52A U134A, with 1.09; and U26C C76U U87C C99U A141G, with 0.12; and C28A C98A G127A, with 0.1.
As for G27C C113U A138U A142G, the self-cleavage amounted to 1.51.
With U26A A124U A129G, the self-cleavage came out at 1.48.
The value for G25U A78G A94G was 0.2; that for U26C A67C G72A A78G A136G was 0.01.
Then G25A A94G U115A, with 0.16.
The value for U29C A30G A129U U134A was 1.11; that for U29C A50G C90U was 0.08.
Regarding U29A G40U U85C G97A, the self-cleavage came to 0.01.
Then G25A U96C U132A, with 0.08; and U29C A50G A141G, with 1.61; and G25A U104C A129G, with 0.77.
The value for U26C A64G A141G U143C was 0.45.
For the variant U29A C38U U87A U132C, the self-cleavage is 0.12.
On to U26C U73C U112C G125A, for which the self-cleavage came to 1.58.
The value for U26C A77U A117U A129G was 2.19.
The value for U26A A140G A141G was 0.18.
The value for U26C G36A A124C was 1.09.
In the case of U26C U85A A136U, the self-cleavage was 0.12.
The value for U29C A30G A77U was 0.87.
Then U26C A69U A77U A78G U81C U87A, with 0.16.
In the case of U26A G32U G33A A77G U109A, the self-cleavage was determined as 0.77.
Turning to U26A U81A G126A A138U, the self-cleavage was determined as 1.3.
In the case of U26A G105A A124G A136G, the self-cleavage stood at 0.81.
With U26C U45C U132C, the self-cleavage was found to be 0.57.
The value for U26C U52C U115A was 0.74; that for C28G A42G A79G A138U U143G was 0.78; that for C28G U46A A67U was 0.23.
As for G25A U39C A42G U46C, the self-cleavage amounted to 0.71.
Then U26A U47C C76U U85A, with 0.11; and U26C U104C U115C, with 1.84.
In the case of U26A U96G C113U, the self-cleavage came to 0.08.
The value for U26C U39A A79G U91C U102A G125A A142G was 0.51; that for C28U U62A U96C U109A U112C was 0.1; that for U26C A57G C71A A78G U115A U143C G144A was 0.17.
The value for U26C U47A G72A A124G U143C was 0.51; that for U29C A67G A121U was 0.14; that for U26C U85C C113U A121G was 0.29.
A24U U115C U134G: the self-cleavage turned out to be 2.16.
